# According to the supplement of paper PMC11417369:
# ± gives the standard deviation of the averaged measurements. This is one part of the list.
# System: PfAP2-LT AP2 domain (GST-tagged)
# Test: gcPBM binding intensity (ln(normalized median fluorescence intensity)); higher = stronger DNA binding
# How it was run: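 For binding intensity, the highest Masliner-normalised natural-log median intensity across replicate spots of either probe orientation was taken. Protein bound to the array was stained with Alexa488 anti-GST antibody and scanned at 488 nm. The protein, GST-tagged P. falciparum DNA-binding domains from E. coli at about 25 μg on average, had been applied for 1 h to an Agilent 4 × 180k array of primer-extended double-stranded 36-bp intergenic genomic probes and negative controls.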
row,Sequence,gcPBM binding intensity (ln)
1,GAATATTAATTCAAGTGTACAAATATATATATAATT [XGTACX_site5103],8.82 ± 0.46
2,CAAAAGGATAGGCACACACACACACCGATATATATA [CACACA_site8685],10.1 ± 0.21
3,AATTTAAAAAATAATTGTACAAAAAAAAAAAATCAG [XGTACX_site4576],8.65 ± 0.56
4,GTTAATATTTTTGGGGGTACTTAAAAAAAAAAAAAA [XGTACX_site1477],8.525 ± 0.021
5,TTACATACAATTGGTGTGCACATATATATATATATA,9.65 ± 0.31
6,TATGTTTTTGAATGAGTGCATTAAAATAAAACATTT,8.47 ± 0.37
7,TTCTTGTATATTCATAGTACATATAATGTCGTGTTA [XGTACX_site8991],8.94 ± 0.52
8,TAATAAGGAATTTATAGTACATATTCATATGTTTTA [XGTACX_site2331],8.5 ± 0.45
9,ATAATATAAATATACACACACACATATATATATATA [CACACA_site2905],9.98 ± 0.2
10,ATAAAAATTTATATATGTACTTAATTTTTAATTTTT [XGTACX_site7482],8.4 ± 0.52
11,TTATATTATATATATGTGCACATTTTTAAACTTGGA,8.77 ± 0.47
12,ACAAATAAAAATATTACACACACTATTATATTGATA [CACACA_site1494],9.17 ± 0.33
13,GGAAGATGAAAAATAAAGCATGTGCTGTACAAACGA [CACACA_negctrl_site1625],9.04 ± 0.45
14,AAATATTTATATGTTACACACTGTTGATAATTTTCT [CACACA_site1347],8.87 ± 0.42
15,TTCAAATTGTTTATATGTACTTATAAAAATTGTCTG [XGTACX_site977],8.52 ± 0.43
16,ATTAAAAAAAAAAAAAGTACTTATAATTATACTCGT [XGTACX_site4852],8.51 ± 0.49
17,AGACCTTTAATTTGTGTGCACATAATTAGTGTACAT [GTGCAC_site9434],9.77 ± 0.31
18,ATTTTTGTAATTATTTGTACACATTTATTTATGTGT [XGTACX_site1864],9.46 ± 0.39
19,AAAAATATTTTGGTTTGTACATATATTTTTACAATA [XGTACX_site8691],8.61 ± 0.34
20,ACTTATTTCGATATGTGTACTTAATATATATATTTA [XGTACX_site6616],8.87 ± 0.4
21,TGACCGTTTTAAGAGTGTACAAAAAAAAAAAAAAAA [XGTACX_site4141],8.44 ± 0.47
22,TATTCTATATAATAATGTACGTGATTTAAATTTTCA [XGTACX_site6650],8.59 ± 0.43
23,AAATAAAATAAAAACATGCACACTTTATTTTTTTTA [CACACA_site2800],8.63 ± 0.45
24,AGAAGTTTAAAAAGCACACAAAAAAAAAAAAAAAGA [CACACA_site3309],8.67 ± 0.49
25,AAAAATACCTGAATATGTACATATGATCAATGGGCC [XGTACX_site887],9.21 ± 0.38
